Source: article PMC6919601, “Identification of Plasmodium dipeptidyl aminopeptidase allosteric inhibitors by high throughput screening” (PLoS ONE, 2019)
Among all 110,000 compounds or so, about 230 (0.21%) showed an effect of 50% or more. Some of the results follow.

What follows are compounds tested against DPAP1 (Plasmodium falciparum, UniProt Q8IIJ9) (assay: primary screen, percent inhibition; read by cleavage of a fluorogenic dipeptide substrate; higher = more effect of the substance).
Set-up: species or system P. falciparum D10 trophozoite lysates; single well
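Further: 30 min substrate incubation versus DMSO and 10 µM JCP410 controls.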

DPAP1, sequence (Q8IIJ9 whole entry, looked up): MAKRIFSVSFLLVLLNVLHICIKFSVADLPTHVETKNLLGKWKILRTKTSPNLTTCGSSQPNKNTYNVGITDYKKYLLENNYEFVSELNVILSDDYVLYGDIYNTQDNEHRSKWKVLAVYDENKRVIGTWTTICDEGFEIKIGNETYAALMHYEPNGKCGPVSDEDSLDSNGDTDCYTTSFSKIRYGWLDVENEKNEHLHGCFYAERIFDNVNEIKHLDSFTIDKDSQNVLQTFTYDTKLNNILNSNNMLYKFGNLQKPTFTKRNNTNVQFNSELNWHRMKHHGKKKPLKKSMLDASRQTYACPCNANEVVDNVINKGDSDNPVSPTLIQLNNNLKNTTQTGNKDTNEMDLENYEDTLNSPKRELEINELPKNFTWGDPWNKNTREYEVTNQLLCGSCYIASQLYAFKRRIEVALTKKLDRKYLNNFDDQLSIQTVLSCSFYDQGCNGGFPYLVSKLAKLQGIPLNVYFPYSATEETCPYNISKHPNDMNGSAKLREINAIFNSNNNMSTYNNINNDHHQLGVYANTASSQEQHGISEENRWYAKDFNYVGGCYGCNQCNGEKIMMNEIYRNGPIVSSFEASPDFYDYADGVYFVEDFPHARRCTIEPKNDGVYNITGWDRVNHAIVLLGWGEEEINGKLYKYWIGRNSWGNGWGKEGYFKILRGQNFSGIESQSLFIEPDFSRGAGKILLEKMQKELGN

Compound | % Inhibition @ 10 uM
COc1cc(OC)cc(C(=O)Nc2sc3c(c2C(N)=O)CCCCC3)c1 | 2.01%
COc1cc(-c2nc3ccccn3c2/N=C/c2cc(OC)c(O)cc2Cl)ccc1O | 6.7%
CC1CCCC(N(Cc2ccco2)C(=O)Nc2cn(C)c(=O)c3ccccc23)C1C (stereo not shown) | 2.99%
O=C1/C(=C\c2ccncc2)N2CCC1CC2 | -0.996%
CCOC(=O)c1c(NC(=O)Cn2nnc3ccccc32)sc2c1CCCC2 | 4.54%
COc1cccc(C2=NS(=O)(=O)N(C)C(C(=O)NC(C)(C)C)=C2)c1 | 6.98%
CC1=C(c2cccc(Br)c2)S(=O)(=O)N=C1N1CCC2(CC1)OCCO2 | -2.85%
COc1ccc(-c2nc3c(n2O)CCc2nonc2-3)cc1 | -3.26%
COc1ccc(CC(=O)n2nc(-c3ccc(Cl)cc3)nc2NCc2ccco2)cc1OC | -1.11%
CC(=O)Nc1ccc(NC(=O)Nc2ccccc2)cc1 | 4.67%
C(#Cc1ccccc1)CN1CCN(c2ccccn2)CC1 | 0.0289%
CC1=NC(C(F)(F)F)(C(F)(F)F)N=C2C=CC=CN12 | 0.032%
O=C(Nc1cc(Cl)ccc1Cl)[C@@H]1C[C@@H]1c1ccccc1 | 1.96%
CC1CC(C)CN(C(=O)CSc2nc(O)c3c(n2)CCC3)C1 (stereo not shown) | -6.52%
O=[N+]([O-])c1ccc(N2CCN(Cc3ccoc3)CC2)cc1 | -6.21%
COc1ccc(OC)c(-n2nnc(-c3nsc(NC(=O)c4cccs4)n3)c2C)c1 | -4.35%
CC(=O)N(CN1C(=O)CCC1=O)c1cccc(Cl)c1 | 0.674%
CN(C)CCN(C)Cc1ccc(O)cc1 | -6.12%
O=C(COc1cccc(NC(=O)c2ccccc2)c1)c1ccc(F)cc1 | -0.123%
CCC1OC(c2ccc(OC)cc2)=Nc2ccccc21 (stereo not shown) | -3.95%
CC(C)CC1=NN2C(=N)/C(=C/c3cc(Cl)c(O)c(Cl)c3)C(=O)N=C2S1 | -3.06%
O=[N+]([O-])c1ccccc1CN1CCC(N2CCCCC2)CC1 | -5.42%

Compound | % Inhibition @ 10 uM
CCOc1ccc2c(c1)C(C)=CC(C)(C)N2Cc1cccc(CN2c3ccc(OCC)cc3C(C)=CC2(C)C)c1 | -4.35%
O=C(CN(Cc1ccccc1)S(=O)(=O)c1ccccc1)NCc1ccncc1 | 0.146%
Cc1ccc2[nH]c(O)c(N=O)c2c1Br | -3.77%
Cc1c(Cc2ccccc2)sc(N)c1C(N)=O | -0.711%
CNS(=O)(=O)c1cc(O)c2c(S(=O)(=O)NC)cccc2c1 | -0.294%
CN(CCO)S(=O)(=O)c1ccc2c(c1)oc(=O)c1cc(S(=O)(=O)N(C)CCO)ccc12 | -6.23%
CC(C)(C)c1ccc(OCc2nnc(-c3ccccc3Cl)o2)cc1 | -2.99%
CCN1CCN(C(=O)c2ccc3c(c2)sc2nc(-c4ccc(C)cc4)cn23)CC1 | 6.88%
COc1ccccc1C(=O)Nc1ccc(NC(C)=O)cc1 | -3.92%
CC(C)(C)C(=O)N1CCCC1C(=O)Nc1ccc2ccccc2c1 (stereo not shown) | 2.01%
COc1ccc(C2=N/C(=C\c3cc(OC)c(OC)c(OC)c3)C(=O)O2)c(Cl)c1 | 6.38%
CSc1nc2oc3c(c2c2nnnn12)CC(C)(C)OC3 | -4.43%
N#Cc1c(C(F)(F)F)cc(-c2ccccc2)nc1SCC(=O)Nc1nonc1-n1cccc1 | 5.49%
CCO[C@H](C)[C@@H](NC(=O)OCc1ccccc1)C(=O)NCC#N | -0.116%
CC(C)(C)C1=C[C@@H](CO)C[C@@H](CO)C1 | 29.7%
Cc1ccc2c(c1)c1c3n2CCN(CC(O)COc2ccccc2)C3CCC1 (stereo not shown) | -4.61%
O=C(NCc1cccc(Cl)c1)c1cc2cccc3c2n1CCS3 | -0.767%
Cc1c(C(=O)NCC(c2ccco2)N(C)C)oc2ccc(Cl)cc12 (stereo not shown) | 9.21%
CS(=O)(=O)N(CC(=O)Nc1ccc2c(c1)OCO2)c1ccccc1F | -0.598%
O=C(Nc1cccc(Cl)c1Cl)c1cccc2ccccc12 | -0.268%
O=c1c(-c2ccccc2)c(C(F)(F)F)oc2cc(O)ccc12 | 19.4%
CC1CCN(S(=O)(=O)c2ccc3nc(O)ccc3c2)CC1 | -3.57%

Compound | % Inhibition @ 10 uM
CCOC(=O)N1CCN(c2cc(C)nc3nc(-c4ccccc4C)nn23)CC1 | -0.946%
CC(=O)c1ccc(NC(=O)COc2cc(Cl)c(Cl)cc2Cl)cc1 | 4.06%
CCC(Cc1ccccc1)NS(=O)(=O)c1csc(C(N)=O)c1 (stereo not shown) | -2.26%
CCc1nn(CC(=O)O)c(=O)c2cc3c(OC)cccc3n12 | 6.31%
COC(F)(C(=O)Nc1cccc(Nc2ccccc2)c1)C(F)(F)F (stereo not shown) | 1.88%
O=C1OC(c2ccccc2)=C/C1=C/c1ccc(Cl)cc1Cl | -2.27%
CC(C)Oc1cccc(C(=O)Nc2ccc(CN3CCOCC3)cc2)c1 | -4.52%
Clc1ccc(CCNCc2c[nH]c3ccccc23)c(Cl)c1 | 0.177%
OCC1CCCN(Cc2c(Cl)cccc2Cl)C1 (stereo not shown) | -3.27%
CSc1nc(C)cc(-n2ccc(=O)[nH]c2=O)n1 | 1.84%
CCOc1ccc(S(=O)(=O)Nc2ccc(CC#N)cc2)cc1 | 0.214%
Cn1c(C(=O)O)c(CNCc2cccc(Cl)c2)c2ccccc21 | -4.33%
Cn1c(=O)c2c(-c3ccc(Cl)cc3)n(CC(=O)O)cc2n(C)c1=O | -3.12%
Cc1nn(C(C)C(=O)N2CCN(C3CCCCC3)CC2)c(=O)c2c1sc1ccccc12 (stereo not shown) | -0.856%
N=C1S/C(=C/c2ccc(-c3cccc(C(=O)O)c3)o2)C(=O)N1c1nccs1 | -3.45%
CCOC(=O)c1[nH]c(C)c(C(=O)NCCCOC(C)C)c1C | -1.66%
COc1ccc(-c2nc(NC(=O)c3cccnc3)sc2C)cc1 | 3.15%
CCOc1ccc(NC(=O)c2ccc(Cl)cc2)cc1 | -5.41%
O=C(C1CC(c2ccc(F)cc2)=NO1)N1CCCCC1 (stereo not shown) | -2.16%
CC(C)Oc1ccc(N2CC(C(=O)Nc3ccccc3C(F)(F)F)CC2=O)cc1 (stereo not shown) | -7.33%
